31 molecules from article PMC9911399, “Two distinct binding modes provide the RNA-binding protein RbFox with extraordinary sequence specificity” can be followed below.

To fix the notation:
T1: RBFOX1 RRM RbFoxmut (Fox-RRM*) (Homo sapiens, UniProt Q9NWB1 109-208, R118D;E147R;N151S;E152T)
T1 sequence: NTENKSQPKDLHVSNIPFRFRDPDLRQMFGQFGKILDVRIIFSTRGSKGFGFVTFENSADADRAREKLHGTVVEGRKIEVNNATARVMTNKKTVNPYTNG

B1: UCCUACC (DNA:RNA)
RNA: GGGAGACCGGAAUUCAGAUUGUCCUCCUACCUUAAAUCCCGUCGUAGCCACCA
DNA 1: CAATCTGAATTCCGGTCTCCC
DNA 2: TGGTGGCTACGACGGGATT
B2: UACGGAU (DNA:RNA)
RNA: B1 RNA with C26A, U28G, A29G, C30A, C31U
DNA 1: CAATCTGAATTCCGGTCTCCC
DNA 2: TGGTGGCTACGACGGGATT
B3: AUGAUGU (DNA:RNA)
RNA: GGGAGACCGGAAUUCAGAUUGUCCAUGAUGUUUAAAUCCCGUCGUAGCCACCA
DNA 1: CAATCTGAATTCCGGTCTCCC
DNA 2: TGGTGGCTACGACGGGATT
B4: UUCCAGC (DNA:RNA)
RNA: B1 RNA with C26U, U28C, C30G
DNA 1: CAATCTGAATTCCGGTCTCCC
DNA 2: TGGTGGCTACGACGGGATT
B5: UCUCACA (DNA:RNA)
RNA: B1 RNA with C27U, U28C, C31A
DNA 1: CAATCTGAATTCCGGTCTCCC
DNA 2: TGGTGGCTACGACGGGATT
B6: CAGCGAC (DNA:RNA)
RNA: B3 RNA with A25C, U26A, A28C, U29G, G30A, U31C
DNA 1: CAATCTGAATTCCGGTCTCCC
DNA 2: TGGTGGCTACGACGGGATT
B7: ACGUGCU (DNA:RNA)
RNA: B3 RNA with U26C, A28U, U29G, G30C
DNA 1: CAATCTGAATTCCGGTCTCCC
DNA 2: TGGTGGCTACGACGGGATT
B8: ACUAGAU (DNA:RNA)
RNA: B3 RNA with U26C, G27U, U29G, G30A
DNA 1: CAATCTGAATTCCGGTCTCCC
DNA 2: TGGTGGCTACGACGGGATT
B9: UCACAGA (DNA:RNA)
RNA: B1 RNA with C27A, U28C, C30G, C31A
DNA 1: CAATCTGAATTCCGGTCTCCC
DNA 2: TGGTGGCTACGACGGGATT
B10: GAGGCCA (DNA:RNA)
RNA: B3 RNA with A25G, U26A, A28G, U29C, G30C, U31A
DNA 1: CAATCTGAATTCCGGTCTCCC
DNA 2: TGGTGGCTACGACGGGATT
B11: UUGCAGA (DNA:RNA)
RNA: B3 RNA with A25U, A28C, U29A, U31A
DNA 1: CAATCTGAATTCCGGTCTCCC
DNA 2: TGGTGGCTACGACGGGATT
B12: UACCUGG (DNA:RNA)
RNA: B3 RNA with A25U, U26A, G27C, A28C, U31G
DNA 1: CAATCTGAATTCCGGTCTCCC
DNA 2: TGGTGGCTACGACGGGATT
B13: CUAUGGG (DNA:RNA)
RNA: B3 RNA with A25C, G27A, A28U, U29G, U31G
DNA 1: CAATCTGAATTCCGGTCTCCC
DNA 2: TGGTGGCTACGACGGGATT
B14: GUAACAC (DNA:RNA)
RNA: B3 RNA with A25G, G27A, U29C, G30A, U31C
DNA 1: CAATCTGAATTCCGGTCTCCC
DNA 2: TGGTGGCTACGACGGGATT
B15: AACGUUA (DNA:RNA)
RNA: B3 RNA with U26A, G27C, A28G, G30U, U31A
DNA 1: CAATCTGAATTCCGGTCTCCC
DNA 2: TGGTGGCTACGACGGGATT
B16: AUAGCGC (DNA:RNA)
RNA: B3 RNA with G27A, A28G, U29C, U31C
DNA 1: CAATCTGAATTCCGGTCTCCC
DNA 2: TGGTGGCTACGACGGGATT
B17: UAGAAGC (DNA:RNA)
RNA: B3 RNA with A25U, U26A, U29A, U31C
DNA 1: CAATCTGAATTCCGGTCTCCC
DNA 2: TGGTGGCTACGACGGGATT
B18: CUAGCAA (DNA:RNA)
RNA: B3 RNA with A25C, G27A, A28G, U29C, G30A, U31A
DNA 1: CAATCTGAATTCCGGTCTCCC
DNA 2: TGGTGGCTACGACGGGATT
B19: CUGCACC (DNA:RNA)
RNA: B1 RNA with U25C, C26U, C27G, U28C
DNA 1: CAATCTGAATTCCGGTCTCCC
DNA 2: TGGTGGCTACGACGGGATT
B20: AGCUAAC (DNA:RNA)
RNA: B1 RNA with U25A, C26G, C30A
DNA 1: CAATCTGAATTCCGGTCTCCC
DNA 2: TGGTGGCTACGACGGGATT
B21: UGCUUAU (DNA:RNA)
RNA: B1 RNA with C26G, A29U, C30A, C31U
DNA 1: CAATCTGAATTCCGGTCTCCC
DNA 2: TGGTGGCTACGACGGGATT
B22: UGUAUAA (DNA:RNA)
RNA: B3 RNA with A25U, U26G, G27U, G30A, U31A
DNA 1: CAATCTGAATTCCGGTCTCCC
DNA 2: TGGTGGCTACGACGGGATT
B23: CGUAUCG (DNA:RNA)
RNA: B3 RNA with A25C, U26G, G27U, G30C, U31G
DNA 1: CAATCTGAATTCCGGTCTCCC
DNA 2: TGGTGGCTACGACGGGATT
B24: CGGUGGC (DNA:RNA)
RNA: B3 RNA with A25C, U26G, A28U, U29G, U31C
DNA 1: CAATCTGAATTCCGGTCTCCC
DNA 2: TGGTGGCTACGACGGGATT
B25: GUUAAUU (DNA:RNA)
RNA: B3 RNA with A25G, G27U, U29A, G30U
DNA 1: CAATCTGAATTCCGGTCTCCC
DNA 2: TGGTGGCTACGACGGGATT
B26: ACACGCA (DNA:RNA)
RNA: B1 RNA with U25A, C27A, U28C, A29G, C31A
DNA 1: CAATCTGAATTCCGGTCTCCC
DNA 2: TGGTGGCTACGACGGGATT
B27: AUGGGAA (DNA:RNA)
RNA: B3 RNA with A28G, U29G, G30A, U31A
DNA 1: CAATCTGAATTCCGGTCTCCC
DNA 2: TGGTGGCTACGACGGGATT
B28: UAAUGUG (DNA:RNA)
RNA: B1 RNA with C26A, C27A, A29G, C30U, C31G
DNA 1: CAATCTGAATTCCGGTCTCCC
DNA 2: TGGTGGCTACGACGGGATT
B29: GCCGAGG (DNA:RNA)
RNA: B1 RNA with U25G, U28G, C30G, C31G
DNA 1: CAATCTGAATTCCGGTCTCCC
DNA 2: TGGTGGCTACGACGGGATT
B30: CACUUGG (DNA:RNA)
RNA: B3 RNA with A25C, U26A, G27C, A28U, U31G
DNA 1: CAATCTGAATTCCGGTCTCCC
DNA 2: TGGTGGCTACGACGGGATT
B31: GAUUCUG (DNA:RNA)
RNA: B1 RNA with U25G, C26A, C27U, A29C, C30U, C31G
DNA 1: CAATCTGAATTCCGGTCTCCC
DNA 2: TGGTGGCTACGACGGGATT

Changes are numbered by the printed parent chain; changes in the protein carry UniProt numbers. Some of the results follow.

The target in this experiment is T1, RBFOX1 RRM RbFoxmut (Fox-RRM*). The experiment can be described thus: EMSA; HiTS-Eq, 1 nM pool, 10 min; buffer printed only for the single-RNA assays: 10 mM Tris pH 7.5, 150 mM NaCl, 3.4 mM EDTA, 0.001% NP-40, 30 C. The note with it: tags: His6 N-terminal (pET28a); label: 5' 32P. The method in brief: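 These values rest on relative association constants, computed from read-count changes of each RNA species versus the control reaction and normalised to the cognate motif. Reads came from free RNA recovered by 8% native PAGE after purified RbFox RRM (wild type or mutant) at increasing concentrations was equilibrated for 10 min in 50 µL with 1 nM of a 5′-radiolabelled pool with 7 randomized nucleotides and DNA-annealed flanks.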
For orientation: Mobility shift assays separate free from complexed probe on a gel.
Turning to B1, the binding signal is 0.122 KA relative to UGCAUGU.

Regarding B2, the binding signal was 0.0871 KA relative to UGCAUGU.

Turning to B3, the binding signal is 0.156 KA relative to UGCAUGU.

Take B4: the binding signal is 0.0966 KA relative to UGCAUGU.

In the case of B5, the binding signal was 0.122 KA relative to UGCAUGU.

With B6, the binding signal is 0.0583 KA relative to UGCAUGU.

As to B7, the binding signal is 0.122 KA relative to UGCAUGU.

Turning to B8, the binding signal is 0.0791 KA relative to UGCAUGU.

For B9, the binding signal is 0.0706 KA relative to UGCAUGU.

On to B10, for which the binding signal was 0.091 KA relative to UGCAUGU.

Consider B11, for which the binding signal was 0.108 KA relative to UGCAUGU.

As for B12, the binding signal is 0.0892 KA relative to UGCAUGU.

In the case of B13, the binding signal is 0.0576 KA relative to UGCAUGU.

As to B14, the binding signal is 0.0896 KA relative to UGCAUGU.

For B15, the binding signal is 0.132 KA relative to UGCAUGU.

B16: the binding signal is 0.0951 KA relative to UGCAUGU.

Regarding B17, the binding signal is 0.0722 KA relative to UGCAUGU.

Consider B18, for which the binding signal is 0.0728 KA relative to UGCAUGU.

For the molecule B19, the binding signal is 0.141 KA relative to UGCAUGU.

On to B20, for which the binding signal is 0.0854 KA relative to UGCAUGU.

Take B21: the binding signal was 0.128 KA relative to UGCAUGU.

Consider B22, for which the binding signal was 0.0646 KA relative to UGCAUGU.

Consider B23, for which the binding signal is 0.263 KA relative to UGCAUGU.

B24: the binding signal is 0.0931 KA relative to UGCAUGU.

As for B25, the binding signal is 0.0844 KA relative to UGCAUGU.

Consider B26, for which the binding signal is 0.148 KA relative to UGCAUGU.

B27: the binding signal was 0.122 KA relative to UGCAUGU.

For the molecule B28, the binding signal was 0.0788 KA relative to UGCAUGU.

Consider B29, for which the binding signal is 0.0802 KA relative to UGCAUGU.

Consider B30, for which the binding signal is 0.1 KA relative to UGCAUGU.

With B31, the binding signal was 0.126 KA relative to UGCAUGU.
